About 16,000 (7.3%) of roughly 220,000 compounds were called active. The shares of active, inactive and inconclusive entries below differ from those in the screen. The call rests on the fitted dose curve; in most records, active means well fitted inhibition curve with a large enough effect (not every such curve was filed as active); inconclusive means small, poorly fitted or top-dose-only effect, or another doubt; inactive means no such curve, though single readings can be large or run the other way. Potencies of inconclusive entries are left out as doubtful fits.
Molecular target: Aldehyde dehydrogenase 1A1 (Homo sapiens) (UniProt P00352)
UniProt P00352, sequence (P00352 whole entry, looked up): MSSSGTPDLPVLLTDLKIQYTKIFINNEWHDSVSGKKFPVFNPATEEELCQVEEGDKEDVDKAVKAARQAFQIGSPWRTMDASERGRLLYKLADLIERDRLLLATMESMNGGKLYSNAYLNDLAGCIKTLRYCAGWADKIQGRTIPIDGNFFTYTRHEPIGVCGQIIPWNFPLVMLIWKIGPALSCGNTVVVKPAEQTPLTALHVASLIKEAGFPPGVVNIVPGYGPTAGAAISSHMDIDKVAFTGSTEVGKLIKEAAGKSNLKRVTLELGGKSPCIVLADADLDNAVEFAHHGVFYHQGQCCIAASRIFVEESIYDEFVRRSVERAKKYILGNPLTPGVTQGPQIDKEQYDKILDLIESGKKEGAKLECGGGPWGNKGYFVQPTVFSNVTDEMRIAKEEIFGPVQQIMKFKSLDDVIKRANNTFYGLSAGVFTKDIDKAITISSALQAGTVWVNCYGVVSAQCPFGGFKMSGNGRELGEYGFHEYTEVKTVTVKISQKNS
Assay: qHTS Assay for Inhibitors of Aldehyde Dehydrogenase 1 (ALDH1A1);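 on activity, negative = inhibition: plate controls were no enzyme wells and a reference inhibitor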
Details: Purified ALDH1A1, NADH fluorescence, propionaldehyde substrate; series mostly up to 75.3 µM
Potency means the concentration at half of the fitted maximal effect; tags describe the fitted curve by direction and shape.

SMILES | Potency | activity, negative = inhibition
N=c1ccn2c(n1)O[C@H]1[C@@H](O)[C@@H](CO)O[C@H]12 | inactive | –
O=C1C2C3C=CC(C3)C2C(=O)N1c1ccc2c(c1)OCO2 (centres undefined) | inconclusive [inhibitor, partial curve] | –
CCOC(=O)N1CCN(c2c(N3CC=C(c4ccccc4)CC3)c(=O)c2=O)CC1 | inconclusive [inhibitor, single point] | –
CC(Oc1ccc(C(C)(C)C)cc1)c1ccnc2nc(/N=C/N(C)C)nn12 (centres undefined) | inconclusive [inhibitor, single point] | –
COc1ccc(N2CCC(CNC(=O)Nc3ccccc3)C2)cc1 (centres undefined) | active: 5.01 µM | –
CC(=O)OCCCN1C(=O)c2ccc(Br)cc2C1=O | inconclusive [inhibitor, partial curve] | –
CCOc1ccc(NC(=S)NN(C)C(=S)Nc2ccc(OCC)cc2)cc1 | active: 28.2 µM | –
O=C(COC(=O)c1cc(=O)[nH]c2ccccc12)NC1CCCCCCC1 | inconclusive [inhibitor, single point] | –
N#Cc1c(NCCN)nc(-c2ccccc2)c2c1CCCC2 | inconclusive [inhibitor, single point] | –
Cc1cccc(-n2ccnc2CN2CCN(C3CCCC3)C(CCO)C2)c1 (centres undefined) | inactive | –
Cc1cc(/C=c2\sc3nc4ccccc4n3c2=O)c(C)n1-c1ccc(C(=O)O)cc1 | inconclusive [inhibitor, partial curve] | –
c1cc2ccc3ccc(-n4cnnn4)c4ccc(c1)c2c34 | inconclusive [inhibitor, single point] | –
COC(=O)CNC(=O)C(=O)OC | inactive | –
CC(C)n1cc(/C=N/NC(=O)COc2cccc3cccnc23)c2ccccc21 | inconclusive [inhibitor, single point] | –
Cc1cc(C)nc(SCc2ccc(C(=O)N/N=C/C3CCCCC3)cc2)n1 | inconclusive [inhibitor, partial curve] | –
Cc1c(C(=O)OCc2ccccc2)[nH]c2c1C(=O)CC(c1ccco1)C2 (centres undefined) | active: 8.91 µM | –
Cc1sc(C(=O)Nc2ccc3ccccc3c2)cc1CC(=O)O | inactive | –
O=C(COc1cc(Cl)c(Cl)cc1Cl)NC(=O)NC1CCCC1 | inconclusive [inhibitor, partial curve] | –
O=C(CNCC1CCCCC1)Nc1ccc(N2CCCCC2)cc1 | inconclusive [inhibitor, partial curve] | –
Cc1nn(-c2ccccc2)c(C)c1C(=O)OCC(=O)NC12CC3CC(CC(C3)C1)C2 | active: 8.91 µM | –
Cc1cc(C)n(CC(=O)N/N=C/c2ccc(C)o2)n1 | inactive | –
COc1ccc(N=c2oc3ccccc3cc2C(=O)Nc2ccccn2)cc1OC | inactive | –
COc1ccccc1C1=Nn2c(COc3ccccc3)nnc2SC1 | active: 14.1 µM | –
O=C(CN1C(=O)C2CC=CCC2C1=O)NC1CCCc2ccccc21 (centres undefined) | inactive | –
Cc1cc(C)n(-c2ncnc3ccccc23)n1 | inactive | –

SMILES | Potency | activity, negative = inhibition
O=C(NCC1CCCO1)c1cc2n(n1)C(C(F)(F)F)CC(c1ccc(F)cc1)N2 (centres undefined) | inconclusive [inhibitor, full curve] | –
O=C(NCc1ccc(Cl)cc1)c1cc(=O)nc2sc(-c3ccccc3)nn12 | active: 5.01 µM | –
Cc1ccc(C)n1NC(=O)c1ccc(O)cc1 | inconclusive [inhibitor, partial curve] | –
CN(C(=O)Nc1ccc(Cl)cc1Cl)[C@H]1c2cc(Br)ccc2OC[C@H]1CO | inconclusive [inhibitor, single point] | –
CN1CCN(C2=CC3=CC(=C(C#N)C#N)CCC3CC2)CC1 (centres undefined) | inconclusive [inhibitor, single point] | –
O=C(NCCCN1CCOCC1)c1cc(-c2ccc(O)cc2)on1 | inactive | –
O=C(NCCc1ccccc1)C1CCN(C2CCN(C(=O)CC3=CCCCC3)CC2)CC1 | inconclusive [inhibitor, partial curve] | –
O=C(NCC1CCCO1)c1ccc(CS(=O)(=O)Cc2ccc(F)cc2)o1 (centres undefined) | inconclusive [inhibitor, single point] | –
COc1cccc(-c2cc3c(-n4cccc4)ncnc3o2)c1 | inconclusive [inhibitor, single point] | –
Cc1ccc(C)c(N2CCN(C(c3ccncc3)c3nnnn3Cc3ccccc3)CC2)c1 (centres undefined) | active: 12.6 µM | –
Cc1occc1C(=O)NNC(=O)C(c1ccccc1)c1ccccc1 | inconclusive [inhibitor, single point] | –
CN(C)CCNCCN | – | inactive: 4.19% [at 13.5 µM]
CC(=O)COc1ccc2c3c(c(=O)oc2c1C)CCCCC3 | inconclusive [inhibitor, partial curve] | –
O=C(CSc1ncn[nH]1)c1ccccc1 | inconclusive [inhibitor, single point] | –
CCOC(=O)N1CCN(C(=O)C(=O)Nc2ccc3nc4n(c(=O)c3c2)CCCCC4)CC1 | inconclusive [inhibitor, partial curve] | –
Cc1ccccc1N1CCN(C(=S)c2ccc(-c3cccc([N+](=O)[O-])c3)o2)CC1 | active: 8.91 µM | –
CC1CC(NC(=O)/C(C#N)=C/c2ccc[nH]2)CC(C)(C)C1 (centres undefined) | inactive | –
N#CC1CC(c2ccc([N+](=O)[O-])cc2)=NN1c1ccc([N+](=O)[O-])cc1 (centres undefined) | inconclusive [inhibitor, partial curve, poor fit] | –
CNc1oc(-c2ccccc2)nc1C#N | inconclusive [inhibitor, partial curve] | –
COCCN1C(=O)c2ccc(C(=O)Nc3nccs3)cc2C1=O | inconclusive [inhibitor, partial curve] | –
C=CCNC(=O)c1cc(Cl)cc(Cl)c1 | inactive | –
C=CCn1c(N)c(C(=O)OCC(C)C)c2nc3ccccc3nc21 | inconclusive [inhibitor, partial curve] | –
CC(C)(C)c1cc(Cl)c(O)c(NC(=S)NC(=O)c2cccnc2)c1 | inconclusive [inhibitor, single point] | –
Cc1c(Br)c([N+](=O)[O-])nn1CCCC(=O)Nc1c(C)n(C)n(-c2ccccc2)c1=O | inconclusive [inhibitor, partial curve, poor fit] | –
COc1cccc(NC(=O)C(NCC2CCCCC2)c2ccccc2)c1 (centres undefined) | inconclusive [inhibitor, partial curve] | –

SMILES | Potency | activity, negative = inhibition
CC(=O)Nc1cc2c(cc1C(=O)c1ccccc1)OCCO2 | inactive | –
CCCCCNC(=O)c1ccc2c(=O)n(CC3CCCO3)c(=O)[nH]c2c1 (centres undefined) | inconclusive [inhibitor, partial curve] | –
CC(C)NC(=O)COC(=O)/C=C/c1ccco1 | inactive | –
CCCS(=O)(=O)c1nc(S(=O)(=O)c2ccc(C)cc2)c(NCCN2CCOCC2)s1 | active: 14.1 µM | –
CC(C)=CCC1(CC=C(C)C)C(=O)C(C(=O)c2ccccc2)=C2OC(C)(C)CCC2(CC=C(C)C)C1=O (centres undefined) | – | inactive: 9.78% [at 13.5 µM]
Oc1c(Br)cc(Br)cc1C=NCc1ccc(F)cc1 | inconclusive [inhibitor, single point] | –
COc1ccc(CCNC(=O)/C=C/c2cc(OC)c(OC)c(OC)c2)cc1OC | inconclusive [inhibitor, single point] | –
C/C=N/NC(=O)CCCC(=O)N/N=C/C | inactive | –
CC(=O)Nc1nc(SCC(=O)NCc2ccc(F)cc2)[nH]c(=O)c1NC(=O)c1cccs1 | inactive | –
Cc1ccccc1OCC(=O)Nn1c(COc2ccccc2)nc2ccccc2c1=O | inconclusive [inhibitor, single point] | –
CCOC(=O)CC(=O)CSc1nc2c(sc(=S)n2-c2ccccc2)c(=O)[nH]1 | inconclusive [inhibitor, partial curve] | –
O=C1ON=C(c2ccc(Cl)cc2)/C1=C/c1ccc(O)cc1 | active: 12.6 µM | –
CC(=O)c1c(C(C)=O)c(C)n(NC(=O)c2ccccc2O)c1C | inconclusive [inhibitor, single point] | –
O=C(c1ccco1)N1CCN(C/C=C/c2ccccc2)CC1 | inconclusive [inhibitor, partial curve] | –
COc1cccc(Cn2c(=O)c(CCc3ccccc3)nc3cnc(OC)nc32)c1 | inactive | –
CC(=O)c1sc(NC(=O)c2ccccc2)nc1-c1ccccc1 | inconclusive [inhibitor, single point] | –
CC1=NN(Cc2ccccc2)C(=O)C1C(c1ccc(Cl)cc1)C(C#N)C#N (centres undefined) | active: 25.1 µM | –
CC(C)OC(=O)c1sc2nc3c(cc2c1N)C(=O)CCC3 | inconclusive [inhibitor, single point] | –
CCCN1CCN(CCCNC(=O)Cn2ncc3c4ccccc4n(C)c3c2=O)CC1 | inconclusive [inhibitor, single point] | –
O=C(Nc1ccccc1C(=O)NCCN1CCOCC1)c1ccco1 | inconclusive [inhibitor, single point] | –
CNC(=O)[C@H](Cc1c[nH]c2ccccc12)NC(=O)[C@@H](CC(=O)NO)CC(C)C | inactive | –
CCc1cccc(C)c1NC(=O)CSc1nnc(-c2ccco2)n1N | inconclusive [inhibitor, single point] | –
CCCCn1c(CCn2nc(C)c(Br)c2C)n[nH]c1=S | inactive | –
CN(C)c1ncc2nc(-c3cccs3)c(=O)n(C[C@H]3CCCO3)c2n1 | inconclusive [inhibitor, single point] | –

Reference: PubChem BioAssay AID1030 (National Center for Advancing Translational Sciences (NCATS), 2008)
